{"sequences": {"note": "Amino acid sequences for entries named in this document (tags omitted).", "UniProt P42771": "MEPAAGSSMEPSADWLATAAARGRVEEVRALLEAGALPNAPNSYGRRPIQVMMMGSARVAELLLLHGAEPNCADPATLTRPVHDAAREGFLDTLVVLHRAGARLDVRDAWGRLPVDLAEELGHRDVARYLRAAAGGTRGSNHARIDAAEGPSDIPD", "UniProt O00506": "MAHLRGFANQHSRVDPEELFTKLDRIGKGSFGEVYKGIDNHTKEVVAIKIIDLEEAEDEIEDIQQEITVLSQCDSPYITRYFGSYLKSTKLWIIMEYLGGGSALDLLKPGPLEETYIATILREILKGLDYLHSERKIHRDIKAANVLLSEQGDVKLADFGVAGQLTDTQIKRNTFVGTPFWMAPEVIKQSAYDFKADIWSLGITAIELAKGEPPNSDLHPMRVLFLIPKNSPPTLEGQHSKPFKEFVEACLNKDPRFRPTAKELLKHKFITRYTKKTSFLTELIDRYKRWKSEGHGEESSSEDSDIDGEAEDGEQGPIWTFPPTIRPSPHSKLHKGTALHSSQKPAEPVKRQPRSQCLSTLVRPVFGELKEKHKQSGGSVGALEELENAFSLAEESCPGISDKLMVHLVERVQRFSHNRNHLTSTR", "UniProt P08047": "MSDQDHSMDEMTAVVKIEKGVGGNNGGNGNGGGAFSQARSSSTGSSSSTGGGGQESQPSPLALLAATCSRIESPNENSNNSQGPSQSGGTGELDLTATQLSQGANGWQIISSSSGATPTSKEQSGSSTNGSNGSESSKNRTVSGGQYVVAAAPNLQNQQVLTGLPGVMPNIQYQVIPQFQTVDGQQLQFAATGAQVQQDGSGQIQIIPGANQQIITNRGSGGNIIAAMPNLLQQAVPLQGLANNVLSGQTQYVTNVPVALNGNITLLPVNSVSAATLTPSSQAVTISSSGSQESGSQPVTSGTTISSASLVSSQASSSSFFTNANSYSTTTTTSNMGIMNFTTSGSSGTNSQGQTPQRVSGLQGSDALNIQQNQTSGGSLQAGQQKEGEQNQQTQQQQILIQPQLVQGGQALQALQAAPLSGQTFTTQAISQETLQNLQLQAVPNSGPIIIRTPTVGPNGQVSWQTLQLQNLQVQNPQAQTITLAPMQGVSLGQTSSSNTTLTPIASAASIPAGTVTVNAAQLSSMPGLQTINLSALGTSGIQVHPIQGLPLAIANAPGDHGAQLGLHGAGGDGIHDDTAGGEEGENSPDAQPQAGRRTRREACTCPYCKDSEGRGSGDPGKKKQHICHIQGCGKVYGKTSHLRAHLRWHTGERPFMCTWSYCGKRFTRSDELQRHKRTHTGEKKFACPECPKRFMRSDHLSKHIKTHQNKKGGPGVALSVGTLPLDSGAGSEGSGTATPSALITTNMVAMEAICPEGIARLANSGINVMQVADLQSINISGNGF"}, "source": "paper PMC5687670", "key": {"[1]": {"target": "p16^INK4a expressed in COS cells (pcDNA3.1-p16^INK4a) (UniProt P42771)", "assay": "co-IP; COS-7 cells transfected with p16^INK4a and V5-CDK4 and/or V5-hYSK1 (hypoxia, 1% O2; Figure 4d) or with p16^INK4a, V5-hYSK1 or HA-SP-1 (Figure 5c); IP with anti-p16^INK4a, immunoblot; NET-NL lysis buffer, 150 mM NaCl, 0.01% NP-40, overnight at 4 °C"}, "[2]": {"target": "V5-hYSK1 expressed in COS cells (pcDNA3.1-V5-hYSK1) (human) (UniProt O00506)", "assay": "co-IP; told only in the discussion, no figure: cells transfected with either V5-hYSK1 or HA-SP-1; IP with anti-hYSK1 or anti-SP-1"}, "[3]": {"target": "p16^INK4a expressed in COS cells (pcDNA3.1-p16^INK4a) (UniProt P42771)", "assay": "co-IP; COS-1 cells transfected with combinations of p16^INK4a, pcDNA3.1-V5-hYSK1 and pcDNA3.1-V5-CDK4; IP with anti-p16^INK4a or anti-hYSK1, blot with anti-V5 or anti-p16^INK4a"}, "HA-SP-1": {"target": "HA-SP-1 (UniProt P08047)", "assay": "co-IP; told only in the discussion, no figure: cells transfected with either V5-hYSK1 or HA-SP-1; IP with anti-hYSK1 or anti-SP-1"}, "[4]": {"target": "GST-p16^INK4a (full length) (UniProt P42771)", "assay": "pull-down; GST or GST fusion proteins on glutathione-Sepharose beads incubated 4 h at 4 °C with ^35S-Met-labeled in vitro translated proteins; washed thrice; SDS-PAGE, autoradiography; only the target purified"}, "[5]": {"target": "endogenous p16^INK4a (human (endogenous in SK-MEL-28)) (UniProt P42771)", "assay": "co-IP; endogenous proteins, cells under hypoxia (1% O2); IP with anti-p16^INK4a, blot with anti-hYSK1 and anti-p16"}, "[6]": {"target": "V5-hYSK1 expressed in COS cells (pcDNA3.1-V5-hYSK1) (human) (UniProt O00506)", "assay": "co-IP; COS-1 cells transfected with combinations of p16^INK4a, pcDNA3.1-V5-hYSK1 and pcDNA3.1-V5-CDK4; IP with anti-p16^INK4a or anti-hYSK1, blot with anti-V5 or anti-p16^INK4a"}}, "note": "Results are given in words; binding and its absence hold for the method and conditions named. Binding seen in cells or lysates may run through a third protein. Some results given as binding are weak or reduced against the parent protein; the word gives no strength.", "data": [{"substance": "HA-SP-1 (from UniProt P08047 1-785)", "values": [{"measurement": "binding", "setting": "[1]", "value": "binds"}, {"measurement": "binding", "setting": "[2]", "value": "no binding"}]}, {"substance": "V5-hYSK1 expressed in COS cells (pcDNA3.1-V5-hYSK1) (from UniProt O00506 1-426)", "values": [{"measurement": "binding", "setting": "[3]", "value": "binds"}, {"measurement": "binding", "setting": "[1]", "value": "binds"}, {"measurement": "binding", "setting": "HA-SP-1", "value": "no binding"}]}, {"substance": "^35S-labeled hYSK1 (full length, in vitro translated) (from UniProt O00506 1-426)", "values": [{"measurement": "binding", "setting": "[4]", "value": "binds"}]}, {"substance": "endogenous hYSK1 (from UniProt O00506 1-426)", "values": [{"measurement": "binding", "setting": "[5]", "value": "binds"}]}, {"substance": "p16^INK4a expressed in COS cells (pcDNA3.1-p16^INK4a) (from UniProt P42771 1-156)", "values": [{"measurement": "binding", "setting": "[6]", "value": "binds"}]}]}
